Assay results reported in PubChem BioAssay AID624296 (National Center for Advancing Translational Sciences (NCATS), 2012).
Among all 350,000 compounds or so, about 9,900 (2.8%) were called active. This list was built around the results that the source calls inconclusive (neither active nor inactive); the mix of calls is not that of the screen. The call rests on the fitted dose curve; in most records, active means well fitted activation curve with a large enough effect; inconclusive means small, poorly fitted or top-dose-only effect; inactive means no such curve, though single readings can be large or run the other way. No potency is given beside an inconclusive call; the fits are too rough.

Test: A quantitative high throughput screen for small molecules that induce DNA re-replication in MCF 10a normal breast cells. Further: nearly all actives have a fitted effect of over 50% in size. On activity, positive = re-replication: % of control where 0% means no effect.
Details: MCF 10A DNA re-replication, Hoechst nuclear intensity, 48 h; activity, positive = re-replication: at 46.1 µM (top of the series)
Potency means the concentration at half of the fitted maximal effect; tags describe the fitted curve by direction and shape.

| Compound | Potency | activity, positive = re-replication |
| --- | --- | --- |
| Cc1cccnc1NC(=O)CN1C(=O)NC(C)(c2ccc3ccccc3c2)C1=O (stereo not given) | inconclusive [activator, single point] | – |
| CCOCCCNc1c(CC)c(C)c(C#N)c2nc3ccccc3n12 | inconclusive [activator, single point] | – |
| Cc1ccc(OCC(=O)NNC(=O)CCC(=O)Nc2ccc(C)cc2C)cc1 | inactive | – |
| CC(=O)c1ccc(NC(=O)N2CCN(c3cccc(Cl)c3)CC2)cc1 | inconclusive [activator, single point] | – |
| Cc1ccc(-n2ncc3c(SCc4ccccc4)ncnc32)cc1 | inconclusive [activator, full curve] | – |
| Cc1cccc(NC(=O)c2nc[nH]c2C(=O)N2CCc3ccccc3C2)c1 | inconclusive [activator, full curve, poor fit] | – |
| Nc1ccc(CN2CCCCCC2)cc1 | inconclusive [activator, partial curve, poor fit] | – |
| Nc1c(N(CCC2=CCCCC2)C(=O)COc2ccc([N+](=O)[O-])cc2)c(=O)[nH]c(=O)n1Cc1ccccc1 | inconclusive [activator, single point] | – |
| O=C(Nc1ccc(Cl)cc1)C1CCCCN1S(=O)(=O)c1ccccc1 (stereo not given) | inconclusive [activator, full curve, poor fit] | – |
| C#CCCOC(=O)N1C2=NC(C(=O)OC)=C(C(=O)OC)[C@@H]3N(C)c4ccccc4[C@]23C[C@H]1CO | inactive | – |
| COc1ccc(C(CC(=O)N2CCN(c3ccccc3)CC2)c2c(O)cc(OC)cc2OC)cc1 (stereo not given) | inconclusive [activator, partial curve, poor fit] | – |
| CC1(C)C2CC[C@]1(C)C(=O)N(CCCCN1CCN(c3ccccn3)CC1)C2=O | inconclusive [activator, partial curve, poor fit] | – |
| CCCNc1c(NS(=O)(=O)c2ccc(OC)c(OC)c2)c(=O)oc2ccccc12 | inactive | – |
| Cc1sc(NC(=O)CCl)c(C(=O)c2ccccc2)c1C | inconclusive [activator, single point] | – |
| C[C@@]12C(=O)N(c3ccc(C(F)(F)F)cc3)C(=O)N1[C@@H]1c3ccccc3OC[C@@H]1[C@H]2c1ccccc1 | inconclusive [activator, single point] | – |
| O=C(Nc1nc2c(F)cccc2s1)c1ccco1 | inactive | – |
| Nc1ccc(C(=O)Oc2ccccc2)c(O)c1 | inactive | – |
| Cc1cc(C)c(C(=O)Nn2c(C)nc3ccccc3c2=O)cc1C | inactive | – |
| CC(=O)C1=C(c2ccccc2)N(C(C)=O)n2c(C)nnc2S1 | inconclusive [activator, single point] | – |
| Cc1cc(C)cc(N(C(=O)Cc2cccs2)C(C(=O)NC2CCCC2)c2ccc(C)o2)c1 (stereo not given) | inconclusive [activator, partial curve] | – |
| CN(C)S(=O)(=O)N1CCCC(C(=O)c2ccc(C(F)(F)F)cc2)C1 (stereo not given) | inactive | – |
| COc1cnn(-c2ccc([N+](=O)[O-])cc2)c(=O)c1Cl | active: 18.4 µM | – |
| Cc1cc([N+](=O)[O-])cc([N+](=O)[O-])c1NCC(C)C | inconclusive [activator, single point] | – |
| COc1ccc(C(NC(=O)CN2C(=O)NC3(CCc4ccccc43)C2=O)c2ccccc2)cc1 (stereo not given) | inconclusive [activator, full curve, poor fit] | – |

| Compound | Potency | activity, positive = re-replication |
| --- | --- | --- |
| COc1ccc(S(=O)(=O)N2CCCCCC2)cc1C(=O)N(C)CC(=O)Nc1ccccc1Cl | inactive | – |
| S=c1[nH]nc(Nc2cccc3ccccc23)s1 | inconclusive [activator, single point] | – |
| CC(C)(C)NCC(O)CON=C1c2ccccc2-c2ccccc21 (stereo not given) | inconclusive [activator, single point] | – |
| O=C(c1cn(-c2ccccc2)nc1-c1ccc(Br)cc1)N1CCOCC1 | inactive | – |
| CCOc1ccc2[nH]c(C(=O)N/N=C/c3ccccc3OC)cc2c1 | active: 5.17 µM | – |
| Cc1ccc(C)c(N(CC(=O)NCc2ccco2)C(=O)CCC(=O)Nc2nccs2)c1 | inactive | – |
| CC1CCc2c(C(=O)NCc3ccco3)csc2C1 (stereo not given) | inactive | – |
| Cc1ccc2[nH]c(=O)c(CN(C(=O)c3cccc([N+](=O)[O-])c3)C(C)C)cc2c1 | inactive | – |
| COCCn1c(SCC(=O)Nc2cc(C)on2)nc2c(c1=O)SCC2 | inactive | – |
| Cc1cc(Cl)ccc1OCCCC(=O)N1CCN(C)CC1 | inconclusive [activator, full curve, poor fit] | – |
| O=C(CN1CC(=O)Oc2ccccc21)NCc1ccco1 | inconclusive [activator, single point] | – |
| CC(=O)c1ccccc1OCCn1nnc(-c2ccc(C)cc2)n1 | inconclusive [activator, partial curve, poor fit] | – |
| CCC(C)Sc1ccc([C@H]2N[C@@](Cc3ccccc3)(C(=O)OC)[C@H]3C(=O)N(CC)C(=O)[C@@H]23)cc1 (stereo not given in full) | inconclusive [activator, single point] | – |
| N=c1c(C(=O)NCC2CCCO2)cc2c(=O)n3ccccc3nc2n1Cc1ccc(F)cc1 (stereo not given) | active: 9.2 µM | – |
| COc1ccc2occ(C(C)=O)c2c1 | inconclusive [activator, single point] | – |
| CCOC(=O)C1=C(C)N(CCCC(=O)O)C(=O)NC1c1ccc(Cl)cc1Cl (stereo not given) | inactive | – |
| Cc1ccc(N(Cc2ccccc2)C(=O)Cc2ccc(S(=O)(=O)N3CCOCC3)s2)cc1 | inconclusive [activator, partial curve, poor fit] | – |
| COc1ccccc1N1CCN(C2CCCCC2NS(=O)(=O)c2ccc(Cl)cc2)CC1 (stereo not given) | inactive | – |
| Cc1ccc(S(=O)(=O)N(Cc2ccccc2)c2ccccc2C(=O)NCc2cccnc2)cc1 | inactive | – |
| CCOC(=O)CCN(Cc1sccc1C)S(=O)(=O)c1ccc(F)cc1 | inconclusive [activator, full curve, poor fit] | – |
| CCCOc1ccccc1/C=C1\SC(N2CCCCC2)=NC1=O | inconclusive [activator, partial curve, poor fit] | – |
| COCCCn1c(N)c(-c2nc3ccccc3n2C)c2nc3ccccc3nc21 | active: 23.1 µM | – |
| O=C(NCCN1CCN(c2ccccc2)CC1)c1cccn2c(=O)c3cc(Cl)ccc3nc12 | active: 4.11 µM | – |
| Oc1ccccc1-c1cc(-c2ccc(Cl)cc2)n[nH]1 | inconclusive [activator, single point] | – |

| Compound | Potency | activity, positive = re-replication |
| --- | --- | --- |
| N#C/C(=C\c1cc(Br)ccc1F)C(=O)NC1CC1 | inconclusive [activator, single point] | – |
| CCOP(=O)(OCC)c1nc(-c2ccccc2Cl)oc1N1CCOCC1 | inconclusive [activator, single point] | – |
| COc1ccccc1NC(=O)c1cn(C)c(=O)c2cc(OC)c(OC)cc12 | inconclusive [activator, single point] | – |
| Cc1cc(C)c2c(=O)[nH]c(SCC(=O)Nc3ccc(Br)cc3)nc2n1 | active: 11.6 µM | – |
| O=C(O)CNc1ncccc1[N+](=O)[O-] | – | inactive: -12.6% [at 9.22 µM] |
| O=C(NCc1ccccc1)C(c1ccccn1)N(C(=O)c1csnn1)c1ccccc1F (stereo not given) | inactive | – |
| NCCCn1cnc2ccccc21 | active: 0.58 µM | – |
| CCCCNc1ncnc2c1nnn2Cc1ccccc1Cl | inconclusive [activator, partial curve, poor fit] | – |
| COc1ccc(NC(=O)CCCN2C(=O)C3C4C=CC(C4)C3C2=O)c(OC)c1 (stereo not given) | inconclusive [activator, single point] | – |
| CC(C)CCN1CCN(Cc2ccc(C#CC(C)(C)O)s2)CC1CCO (stereo not given) | inconclusive [activator, partial curve, poor fit] | – |
| Cc1ccccc1-c1ccc(C(=O)Nc2cccc(F)c2)o1 | inconclusive [activator, single point] | – |
| Cc1c(C(=O)NC2CCCc3ccccc32)oc2ccc(S(=O)(=O)N3CCCCC3)cc12 (stereo not given) | – | inconclusive: 104% [activator] |
| CCc1nc2scc(-c3ccccc3)c2c(=O)n1N | inconclusive [activator, single point] | – |
| CN(CC(=O)Nc1ccccc1Cl)CC(=O)Nc1sc2c(c1C(N)=O)CCC2 | active: 3.26 µM | – |
| CN(NS(=O)(=O)c1ccccc1)c1nc2ccccc2nc1C(F)(F)F | inconclusive [activator, single point] | – |
| CC(O)CNc1ncnc2cc(-c3ccc(F)cc3)sc12 (stereo not given) | active: 13 µM | – |
| CCC(C)N1C(=O)/C(=C/c2c(NCCCOC(C)C)nc3c(C)cccn3c2=O)SC1=S (stereo not given) | inactive | – |
| Cc1cc(C(=O)CSc2nnnn2-c2ccc(O)cc2)c(C)n1Cc1ccc2c(c1)OCO2 | inconclusive [activator, partial curve] | – |
| Cc1cc(C)cc(OCc2nnc(SCC(=O)c3ccc(Br)cc3)o2)c1 | inconclusive [activator, partial curve, poor fit] | – |
| COc1ccccc1/C=C/C(=O)N1CCC(c2ccccc2)C1 (stereo not given) | inconclusive [activator, partial curve, poor fit] | – |
| Cc1sc2ncnc(N/N=C/c3ccccc3O)c2c1C | inconclusive [activator, partial curve, poor fit] | – |
| COC(=O)c1cc(NC(=O)CC2NCCNC2=O)cc(C(=O)OC)c1 (stereo not given) | inconclusive [activator, single point] | – |
